Article PMC4336329 (PLoS ONE, 2015)
Among all 310,000 compounds or so, about 2,200 (0.71%) showed an effect of 50% or more. The effect is printed as a negative number. The list shows a part of the results.

The compounds below were run against human ether-à-go-go-related gene (hERG) potassium channel (human, UniProt Q12809) (assay: primary screen, population patch clamp on CHO cells stably expressing hERG).
Sequence of human ether-à-go-go-related gene (hERG) potassium channel (Q12809 whole entry, looked up): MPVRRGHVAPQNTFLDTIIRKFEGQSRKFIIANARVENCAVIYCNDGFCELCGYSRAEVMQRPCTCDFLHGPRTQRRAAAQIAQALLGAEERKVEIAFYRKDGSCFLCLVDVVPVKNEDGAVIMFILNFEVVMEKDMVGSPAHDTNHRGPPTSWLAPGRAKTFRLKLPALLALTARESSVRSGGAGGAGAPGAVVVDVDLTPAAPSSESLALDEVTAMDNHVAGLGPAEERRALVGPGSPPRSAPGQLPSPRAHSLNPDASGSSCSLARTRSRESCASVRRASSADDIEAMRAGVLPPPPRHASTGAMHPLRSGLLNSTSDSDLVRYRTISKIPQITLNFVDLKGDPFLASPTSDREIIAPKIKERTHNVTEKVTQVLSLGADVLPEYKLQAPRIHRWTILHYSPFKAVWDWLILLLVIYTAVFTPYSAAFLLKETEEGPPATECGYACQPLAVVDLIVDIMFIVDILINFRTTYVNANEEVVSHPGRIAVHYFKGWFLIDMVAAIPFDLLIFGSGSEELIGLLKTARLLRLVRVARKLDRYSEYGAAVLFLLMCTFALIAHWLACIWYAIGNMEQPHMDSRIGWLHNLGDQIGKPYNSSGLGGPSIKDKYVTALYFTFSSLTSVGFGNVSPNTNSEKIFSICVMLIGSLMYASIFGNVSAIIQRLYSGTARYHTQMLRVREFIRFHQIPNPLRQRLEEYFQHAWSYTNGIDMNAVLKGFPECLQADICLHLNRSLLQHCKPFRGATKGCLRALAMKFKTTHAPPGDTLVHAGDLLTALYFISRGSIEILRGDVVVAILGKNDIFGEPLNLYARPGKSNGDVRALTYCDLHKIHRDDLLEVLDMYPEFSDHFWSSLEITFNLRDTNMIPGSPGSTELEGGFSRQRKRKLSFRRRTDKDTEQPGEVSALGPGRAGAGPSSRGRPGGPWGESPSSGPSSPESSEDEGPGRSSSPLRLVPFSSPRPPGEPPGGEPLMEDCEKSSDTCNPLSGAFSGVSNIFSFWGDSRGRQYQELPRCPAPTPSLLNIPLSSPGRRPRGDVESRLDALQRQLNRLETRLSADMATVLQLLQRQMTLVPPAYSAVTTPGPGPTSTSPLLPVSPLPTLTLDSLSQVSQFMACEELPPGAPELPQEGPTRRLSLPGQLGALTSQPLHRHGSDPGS
In the case of `C/C(Cn1nnc([N+](=O)[O-])n1)=N\NC(=O)c1ccncc1`, the “hERG current change (%, negative = inhibition) at 1uM” value is reported as 9.1%. With `Cc1cccc(N(C(=O)c2snc(C(N)=O)c2N)C(C)C(=O)NCC2CCCO2)c1` (centres unmarked) the “hERG current change (%, negative = inhibition) at 1uM” value was 20.4%. For `CN(Cc1ccccc1)C(=O)c1nc[nH]c1C(=O)N1CCN(c2ccccc2)CC1`, the “hERG current change (%, negative = inhibition) at 1uM” value was 7.7%. For `C=CCn1c(Oc2ccccc2F)nc2c1c(=O)n(C)c(=O)n2C`, the “hERG current change (%, negative = inhibition) at 1uM” value was 14.3%. For `CC(C)c1nnc(NC(=O)CSc2nc3ccccc3s2)s1`, the “hERG current change (%, negative = inhibition) at 1uM” value was -2.37%. For `CCCC(=O)NC(NC1CCS(=O)(=O)C1)C(Cl)(Cl)Cl` (centres unmarked), the “hERG current change (%, negative = inhibition) at 1uM” value was 4.89%. For `CCOC(=O)c1[nH]c(C)c(/C(O)=C2\C(=O)C(=O)N(CCN(C)C)C2c2ccco2)c1C` (centres unmarked), the “hERG current change (%, negative = inhibition) at 1uM” value was 7%. In the case of `Cc1ccc2c(c1)c(C1=NC(=S)NC1=O)c(O)n2C`, the “hERG current change (%, negative = inhibition) at 1uM” value is reported as 9.62%. For `COc1ccc([N+](=O)[O-])cc1N1C(=O)c2cccnc2C1=O`, the “hERG current change (%, negative = inhibition) at 1uM” value was 9.85%. With `Cl.O=C(c1ccccc1F)N1CCN(Cc2ccccc2F)CC1` the “hERG current change (%, negative = inhibition) at 1uM” value was 17.5%. `Cc1noc(C)c1CSCC(=O)Nc1cc(S(=O)(=O)N2CCOCC2)ccc1OCC(F)(F)F` was tested, and the “hERG current change (%, negative = inhibition) at 1uM” value was 0.194%. `Cc1cnc(C(=O)Nc2nc(-c3ccccc3)cs2)cn1` was tested, and the “hERG current change (%, negative = inhibition) at 1uM” value was -3.94%. `CC(=N)C1=C(O)CC(c2ccccc2)CC1=O` (centres unmarked) was tested, and the “hERG current change (%, negative = inhibition) at 1uM” value was 16.6%. For `O=C(COC(=O)c1c(Cl)ccc(Cl)c1Cl)NC1CCS(=O)(=O)C1` (centres unmarked), the “hERG current change (%, negative = inhibition) at 1uM” value was 9.59%. With `COC(=O)CSC1=C(C#N)C(c2cccc(F)c2)CC(=O)N1` (centres unmarked) the “hERG current change (%, negative = inhibition) at 1uM” value was 8.39%. In the case of `CCOC(=O)C1CCCN(CC(O)COC(c2ccccc2)c2ccccc2)C1` (centres unmarked), the “hERG current change (%, negative = inhibition) at 1uM” value is reported as -78.8%. `O=C(COc1ccc(S(=O)(=O)N2CCCC2)cc1Cl)NCc1cccnc1` was tested, and the “hERG current change (%, negative = inhibition) at 1uM” value was -16.4%. With `Cc1ccc(NC(=O)COc2ccc(/C=C3/SC(=Nc4ccccc4)N(Cc4cccnc4)C3=O)cc2)cc1` the “hERG current change (%, negative = inhibition) at 1uM” value was 9.38%. `Cc1nccn1CCCNC(=O)CC1C(=O)NCCN1Cc1ccc(Cl)c(F)c1` (centres unmarked) was tested, and the “hERG current change (%, negative = inhibition) at 1uM” value was 11.3%. With `Cc1ccc(S(=O)(=O)n2ccc(=O)[nH]2)cc1` the “hERG current change (%, negative = inhibition) at 1uM” value was 5.78%. With `Cc1ccc(-c2cnc(-c3ccccc3C(=O)O)o2)cc1` the “hERG current change (%, negative = inhibition) at 1uM” value was 14.1%. `CCN(CC)CC(O)Cn1c(C)c(-c2ccccc2)c2cc([N+](=O)[O-])ccc21.Cl` (centres unmarked) was tested, and the “hERG current change (%, negative = inhibition) at 1uM” value was -18.5%. With `Cc1cccc(C)c1NC(=O)COC(=O)c1nonc1N` the “hERG current change (%, negative = inhibition) at 1uM” value was 9.37%. For `COC(=O)c1c(NC(=O)CSc2nnnn2C)sc(C)c1C`, the “hERG current change (%, negative = inhibition) at 1uM” value was -2.2%. In the case of `Cc1[nH]c2ccccc2c1C(=O)C(=O)NCCc1ccc(S(N)(=O)=O)cc1`, the “hERG current change (%, negative = inhibition) at 1uM” value is reported as 3.85%. `COCCCC1CCN(C(=O)c2cc(COc3cc(C)ccc3C)on2)CC1` was tested, and the “hERG current change (%, negative = inhibition) at 1uM” value was 9.02%. For `COc1cc(-c2nc(-c3cccc(C)c3)no2)cc(OC)c1OC`, the “hERG current change (%, negative = inhibition) at 1uM” value was 0.586%. With `O=C(O)CC(C(=O)OC1CCCCC1)N1CCOCC1` (centres unmarked) the “hERG current change (%, negative = inhibition) at 1uM” value was 16.5%. With `Fc1ccc(Oc2nc(-c3ccccc3)nnc2C(F)(F)F)cc1` the “hERG current change (%, negative = inhibition) at 1uM” value was 6.08%. In the case of `CC1=C(C(=O)OC(C)(C)C)C(c2ccc3ccccc3c2)NC(=O)N1C` (centres unmarked), the “hERG current change (%, negative = inhibition) at 1uM” value is reported as 10%. In the case of `COc1ccc(NC(=O)CN(C)C(=O)CCNS(=O)(=O)c2ccc(Br)cc2)cc1`, the “hERG current change (%, negative = inhibition) at 1uM” value is reported as 8.44%. With `CC(C)(C)c1[nH]nc2c1C(C1C=CCCC1)C(C#N)=C(N)O2` (centres unmarked) the “hERG current change (%, negative = inhibition) at 1uM” value was 0.944%. In the case of `NC(=O)c1cccnc1Oc1ccccc1`, the “hERG current change (%, negative = inhibition) at 1uM” value is reported as 10.3%. `Cc1ccc(C(=O)N2CCN(C(=O)c3ccc(C)cc3)C2)cc1` was tested, and the “hERG current change (%, negative = inhibition) at 1uM” value was 0.274%. For `CN(C)CCCN1C(=O)C(O)=C(C(=O)c2cccs2)C1c1cccc([N+](=O)[O-])c1` (centres unmarked), the “hERG current change (%, negative = inhibition) at 1uM” value was 9.28%. For `C=CCNC(=S)N/N=C/c1cn(-c2ccccc2)nc1-c1ccc(OC)cc1`, the “hERG current change (%, negative = inhibition) at 1uM” value was 14.4%. In the case of `Cc1ccc(-c2n[nH]c(=S)c3ccccc23)cc1S(=O)(=O)NCC1CCCO1` (centres unmarked), the “hERG current change (%, negative = inhibition) at 1uM” value is reported as 13%. With `Cc1nn2c(c1-c1ccccc1)N=C(c1ccco1)CC2c1ccccc1` (centres unmarked) the “hERG current change (%, negative = inhibition) at 1uM” value was 11.2%. In the case of `CCC1S/C(=N/N=C/c2ccco2)N(Cc2ccccc2)C1=O` (centres unmarked), the “hERG current change (%, negative = inhibition) at 1uM” value is reported as 8.47%. For `c1cncc(CNc2nc(-c3cccnc3)nc3ccccc23)c1`, the “hERG current change (%, negative = inhibition) at 1uM” value was -1.23%. With `Cc1ccc(NC(=O)Cc2nnc(SCC(=O)c3ccc(Br)cc3)n2C)cc1` the “hERG current change (%, negative = inhibition) at 1uM” value was 7.32%. `Br.Cc1ccc(Nc2nc(-c3ccc(S(=O)(=O)N4CCCC4)cc3)cs2)cc1C` was tested, and the “hERG current change (%, negative = inhibition) at 1uM” value was 7.01%. `COc1cc(/C=C2\SC(=S)N(NC(=O)c3ccccc3O)C2=O)ccc1O` was tested, and the “hERG current change (%, negative = inhibition) at 1uM” value was 15.7%. For `CCC(C)(C#CCN1CCCCC1)OC(C)=O` (centres unmarked), the “hERG current change (%, negative = inhibition) at 1uM” value was 9.81%. For `Cn1ccnc1C(=O)c1cc(=O)c2ccccc2o1`, the “hERG current change (%, negative = inhibition) at 1uM” value was 12.2%. `CCCC(=O)Nc1cc(C(=O)O)ccc1S(=O)(=O)c1ccc(Cl)cc1` was tested, and the “hERG current change (%, negative = inhibition) at 1uM” value was 7.61%. For `COCCn1c(SCc2ccc(C(=O)OC)o2)nc2ccccc2c1=O`, the “hERG current change (%, negative = inhibition) at 1uM” value was 1.26%. With `O=C(COC(=O)c1ccc(Cl)c(S(=O)(=O)N2CCCC2)c1)NC1CCCCC1` the “hERG current change (%, negative = inhibition) at 1uM” value was 8.02%. For `Cc1ccc(CNC(=O)CN2C(=O)NC(C)(c3ccc(Cl)cc3)C2=O)cc1` (centres unmarked), the “hERG current change (%, negative = inhibition) at 1uM” value was 9.96%. In the case of `CCCC(C)c1nnc(NC(=O)C2CCCO2)s1` (centres unmarked), the “hERG current change (%, negative = inhibition) at 1uM” value is reported as 8.36%. For `Cc1nc2ccc(S(=O)(=O)Nc3cccc(-c4nc5cccnc5s4)c3)cc2s1`, the “hERG current change (%, negative = inhibition) at 1uM” value was 15%. For `Cc1ccc(-n2ncc(Cl)c2C(=O)NCc2ccccc2)cc1`, the “hERG current change (%, negative = inhibition) at 1uM” value was 13.6%. `COc1cc(/C=C/c2ccc3cccc(O)c3n2)c(Br)cc1O` was tested, and the “hERG current change (%, negative = inhibition) at 1uM” value was 16.3%. With `CC1C/C(=C\c2cccnc2)C(=O)/C(=C/c2cccnc2)C1` (centres unmarked) the “hERG current change (%, negative = inhibition) at 1uM” value was -28.3%. For `CCCCN(CCCC)CCNC(=O)CN1C(=O)CSc2ccc(S(=O)(=O)N3CCCCC3)cc21`, the “hERG current change (%, negative = inhibition) at 1uM” value was -51.7%. `COc1cc(/C=C2\SC(=S)N(CC(=O)O)C2=O)ccc1OS(=O)(=O)c1ccc(C)cc1` was tested, and the “hERG current change (%, negative = inhibition) at 1uM” value was 18.1%.
